Assay results from PMC12136788.
This is one part of the list.

B1: chr5:130536139:130536140:+_ENSMUSG00000025532_ENSMUST00000026608|mus_mus|motif|central (ssRNA)
RNA: GGGAGUUCUACAGUCCGACGAUCUCAGAUUGGAGUUUUCUCUUAUCUCCUAUUCCGCCAAGGACAUUCCUCUACAGUGAGCGGAGCUCUGGGUCAUUUCCCCUAGAGCAGCUGUGUGCAGCUCUGAGAGCUGGUGACCAUCUGCAACAGAGGAUUGAGCAUCA
B2: chr1:163117127:163117128:-_ENSG00000143248_ENST00000313961|hu_mus|hu_hu_hu_mus_False|38_88 (ssRNA)
RNA: GGGAGUUCUACAGUCCGACGAUCUGCUACAAAGGAUGUAACUCAACACUCACAGGAACUUUUGGAAGCCUGACCAGAUGACUACUUGAUUAGCUCCUGAUAAAACUCAGAGCGCACAAAGCGGGGCAGAGAAUCCUUCUCCAUCAACAGAGGAUUGAGCAUCA
B3: chr1:229631753:229631754:-_ENSG00000069248_ENST00000261396|hu_mus|FALSE|FALSE (ssRNA)
RNA: GGGAGUUCUACAGUCCGACGAUCCUGCUUCUCUGAAGAAUCGUCCAGUUCCCAUUUGCUGAUGUUUGAACUCGUCAGGGUGUAGAAACUUGAUCCUCCUCUGUCCCACAGAACACUGGCCAGCAUGAGGUCACUAGUAGGGGACAACAGAGGAUUGAGCAUCA
B4: chr1:204511919:204511920:+_ENSG00000198625_ENST00000367182|hu_hu|motif|central (ssRNA)
RNA: GGGAGUUCUACAGUCCGACGAUCGCCAGCUACAUCCCACUCCUCAAAUCCAAGGUCCAGCCUAGAUGUUUCAUCUUGGGCGGAAUUUUCAAUUAAGUCUUCAUCUUCUCUAGAAUGUAUGCAUUUAUGCUCUGAGGUAGGCAGCAACAGAGGAUUGAGCAUCA
B5: chr2:30258285:30258286:-_ENSMUSG00000026853_ENSMUST00000028207|mus_mus|FALSE|FALSE (ssRNA)
RNA: GGGAGUUCUACAGUCCGACGAUCGGCCUCCAUGGGGUUGUAGCAGAUGCCAUAACCAUCUGGGACCACAGGUCCGAAGAACAUGACACAGUCUGUCUUGGCAGGGACCUGGCUGGUAGAGAGGUUGAAGUGCAUAGCAAUGGCCAACAGAGGAUUGAGCAUCA
B6: chr7:141441981:141441982:+_ENSG00000106028_ENST00000265304|hu_mus|hu_hu_hu_mus_False|28_88 (ssRNA)
RNA: GGGAGUUCUACAGUCCGACGAUCCUCAUGUCUUACAAACUGACGAAGUACCUGUAACACAGGUCUUCGAAACAUGGCUUCUGUUUUUCUUACAACCUAAUCUUUAGUUAGGCUUUUAAGGAAAGAAAGAAAAGAGAAAAAUGACAACAGAGGAUUGAGCAUCA
B7: chr4:58499471:58499472:-_ENSMUSG00000038668_ENSMUST00000055018|mus_hu|FALSE|FALSE (ssRNA)
RNA: GGGAGUUCUACAGUCCGACGAUCAGCAUAGAGAACCACCAUUACCACAAAGGUCACCAAGUUGAAAAUGGCCCAGAAGACUAAGUAAGAGUCACUGUAGAGGGGUGCCAUGUUGGAACAAUUUUCAAUAUCACAGAUACAGUUCAACAGAGGAUUGAGCAUCA
B8: chr2:202488911:202488912:-_ENSG00000155755_ENST00000286196|hu_mus|hu_hu_hu_mus_False|48_78 (ssRNA)
RNA: GGGAGUUCUACAGUCCGACGAUCAUUGAAACAUUUUUCAUAAUCUCCAGUAGCAUUCAGUAUUAUAGUAACAAAAGCUCAAUUGUAAAUACACAUGUCUUAUAAAAAUACACUUAAAAACACGAGUGGGGAGCGCAGGCGCCACAACAGAGGAUUGAGCAUCA
B9: chr4:155069534:155069535:+_ENSMUSG00000074738_ENSMUST00000099265|mus_hu|motif|central (ssRNA)
RNA: GGGAGUUCUACAGUCCGACGAUCGUGAGCCGGAGUGCCCAUGGCUCUUGCUGGAAGGGGCUCCAUGCCCUGGCCGCCUCGGUAAAGGCCUGCGGAGAGCGGGGAGAGCCCUGGAUGCGGCUGGCACAGCAGCGCAAGCCCAGGCAACAGAGGAUUGAGCAUCA
B10: chr4:144460044:144460045:+_ENSG00000153147_ENST00000283131|hu_mus|hu_hu_hu_mus_False|28_88 (ssRNA)
RNA: GGGAGUUCUACAGUCCGACGAUCACGGUCCAUAGCCUGAAGAUCAACUUGGGGAUUCCAAUCUGAGUCAUAUAAAAUGACUACAUCAGCAGUUGCAAGAUUGAUGCCAAGACCACCAGCACGUGUGCUUAGCAUAAAUACAAACAACAGAGGAUUGAGCAUCA
B11: chr11:82972979:82972980:-_ENSG00000137500_ENST00000527495|hu_hu|FALSE|FALSE (ssRNA)
RNA: GGGAGUUCUACAGUCCGACGAUCAGCCACAGCAGGAUGAGCAUUAAUACUACUUCCAGAAUCUAUAAAAUCCCAAUGCUAUUGCCAGGCAAGUAAACACCGAAGCUUUUUUGUAAAUUCUGUAGUUGUUUCCAUAAGUUGCUUCAACAGAGGAUUGAGCAUCA
B12: chr22:19442333:19442334:-_ENSG00000070010_ENST00000399523|hu_hu|FALSE|FALSE (ssRNA)
RNA: GGGAGUUCUACAGUCCGACGAUCGACUGUCCUUCUCCAGAGAAAGCGACGAAUCUGCCUCCAGCUUCAUCCAAGUUUAAAUUCAUAAUUGGGAAUUCCUCUUUUAAUAUCUCCAGGCUUGAUUGGGGAGGGGCUGGGCUCUACCAACAGAGGAUUGAGCAUCA
B13: chr3:122252165:122252166:-_ENSMUSG00000039735_ENSMUST00000162409|mus_hu|motif|central (ssRNA)
RNA: GGGAGUUCUACAGUCCGACGAUCAAUGCGCUGCUGUAGUUUUUUACGUCUCUGUUCUGGUGGCAGAUGACUGAAAUCUUCGGGUGCUGGGCCCUUUGGCUUCUUUCCAAAGAGCCACAAUUUGCCCUUGGCCUUUCCUACUGUCAACAGAGGAUUGAGCAUCA
B14: chr9:14812383:14812384:-_ENSMUSG00000031934_ENSMUST00000164273|mus_mus|mus_mus_mus_hu_True|88_108 (ssRNA)
RNA: GGGAGUUCUACAGUCCGACGAUCAUAGCUCAAGUAGAUACACGCUAACAGUAUAACGAUGAGUGUCAGCAGGCGGCAGCUAAUGUACUUGAUGAUUAAAUUAUUAGAAUUUUUCUUUGUCUUCAAGUACUGCUCCACAAUUGGCAACAGAGGAUUGAGCAUCA
B15: 118656797_118656917_409_3pUTR_ENSG00000110367_ENST00000264018|human|control|control (ssRNA)
RNA: GGGAGUUCUACAGUCCGACGAUCUGCCAUUAUUGAUUGUGUUGGUGUUUUUCAGCUGGUUCAUCUGUUGCUGUGUCUGUGUGCCCCCUCCUCCAGGGCCACCAGUGGGUUUCACAGGGCCUCUCAGCUGACCAUUUUGACUGGCAACAGAGGAUUGAGCAUCA
B16: chr3:8560387:8560388:+_ENSMUSG00000027500_ENSMUST00000029002|perfect_dup|motif|central (ssRNA)
RNA: GGGAGUUCUACAGUCCGACGAUCCAUACAUUCCCCAUCCUGAUAUCGCAUGAUCCAUUAUAAUAUAGGCAGGGGGAUUUACGGUUGGUGGGGCGUGCCAGACCCUCCCUUGCUUCAGCCAGACAGUUCAACCUGGAGUUCCUUCAACAGAGGAUUGAGCAUCA
B17: chr10:104572449:104572450:+_ENSG00000166272_ENST00000448841|hu_hu|FALSE|FALSE (ssRNA)
RNA: GGGAGUUCUACAGUCCGACGAUCGGGAUCGAUGCCCGGGGGACUGCCACCUGCAGGGCCACACUGUGGAGGCAGCAGCUGCUGCUGCUGUAGCUGGAAGGCACUGUAUGGUGGGGGAGGAGUUGGAGGUCGGUUCACCACUUCCAACAGAGGAUUGAGCAUCA
B18: chr3:9412954:9412955:+_ENSG00000134077_ENST00000452837|hu_mus|hu_hu_hu_mus_False|28_68 (ssRNA)
RNA: GGGAGUUCUACAGUCCGACGAUCGGUUGAUAUCUCUUCUUUGAUGGCUGGAUUUUCAUAAUAGUCCAAGAUAUGAGAAUCUGAAGUGCUGCUGGCAUGCUUUUUCUUAACAUUUCUCUCAUCUGCUUUGUCUCCUUGUCCACACAACAGAGGAUUGAGCAUCA
B19: chr7:17002144:17002145:+_ENSMUSG00000059273_ENSMUST00000098789|mus_hu|FALSE|FALSE (ssRNA)
RNA: GGGAGUUCUACAGUCCGACGAUCCUCAGGCCCUCCGGAGGUAUCCUGGGUCUCCUCUGCCCCAUCAUCUUCCAAUUCACCUUCUUCCAACUCUCCAUCUUCCCUGUCGUCAGGGAGCGGGAGGCGGUGGUGGAGGAGGUGCGGCAACAGAGGAUUGAGCAUCA
B20: chr1:66480114:66480115:+_ENSMUSG00000015222_ENSMUST00000024639|mus_hu|mus_mus_mus_hu_True|28_58 (ssRNA)
RNA: GGGAGUUCUACAGUCCGACGAUCUGGCCUGUGGCGGAUGUUCUUCAGAGAGCCACAUUUGGAUGUCACAUGGCUUAAGUCUAUCUUCUUGGUAACAAUUUGUACCUGACCCCCCUUAGGCUGGUAUUUGAUGUUGUCUGUUGACAACAGAGGAUUGAGCAUCA
B21: chr7:106631192:106631193:-_ENSMUSG00000030744_ENSMUST00000032998|mus_mus|FALSE|FALSE (ssRNA)
RNA: GGGAGUUCUACAGUCCGACGAUCCUUCAGCCAGCUCCCGAGUGAGAAAUUCAUUCAGCUCAGCUUUGAAGAUGCCAUCAGCUACAAACUUCCUCUUCUUGGAAAUCUGCACCGCCAUCUUGCAGCCGCGCGCCGCUGAAAGGACAACAGAGGAUUGAGCAUCA
B22: chr17:64801638:64801639:+_ENSG00000154229_ENST00000413366|hu_mus|hu_hu_hu_mus_False|58_58 (ssRNA)
RNA: GGGAGUUCUACAGUCCGACGAUCUAUAUAUAUAUAUACAUAUGUACACAUAUAUAGUAAAACCCUAGUUAAACGUGUAAACUAGCCAUUCAUUUUUAAAAUUACAUCUACAUUAAAAAAUUAAUAUAUCUGAUAGAGUGCCAGCAACAGAGGAUUGAGCAUCA

target: T1, UNK ZnF1-3 (human, UniProt Q9C0B0 31-174); test: nsRBNS (natural sequence RNA bind-n-seq); RBNS binding buffer (assumed for nsRBNS): 25 mM Tris pH 7.5, 150 mM KCl, 3 mM MgCl2, 0.01% Triton X-100, 500 ug/ml BSA, 20 U/ml SUPERase-In, 4 C; UNK is unkempt and MSI1 is Musashi-1; names of the RNAs are library labels; protein concentration not given here; high values mean tight binding
T1 sequence: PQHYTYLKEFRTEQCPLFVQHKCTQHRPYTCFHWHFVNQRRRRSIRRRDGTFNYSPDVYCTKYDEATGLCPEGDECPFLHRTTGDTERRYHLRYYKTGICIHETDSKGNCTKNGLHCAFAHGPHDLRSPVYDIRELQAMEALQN

Binder | binding signal
B1 | 0.346 enrichment R
B2 | 1.1 enrichment R
B3 | 0.897 enrichment R
B4 | 0.989 enrichment R
B5 | 1.56 enrichment R
B6 | 0.627 enrichment R
B7 | 2.32 enrichment R
B8 | 1.35 enrichment R
B9 | 0.722 enrichment R
B10 | 1.07 enrichment R
B11 | 2.04 enrichment R
B12 | 2 enrichment R
B13 | 0.412 enrichment R
B14 | 0.969 enrichment R
B15 | 0.693 enrichment R
B16 | 1.28 enrichment R
B17 | 0.934 enrichment R
B18 | 0.538 enrichment R
B19 | 0.698 enrichment R
B20 | 0.615 enrichment R
B21 | 0.871 enrichment R
B22 | 1.44 enrichment R
